Test results: PubChem BioAssay AID1347041 (National Center for Advancing Translational Sciences (NCATS), 2019)
In all, about 480,000 compounds went through this assay and about 740 (0.15%) were called active. The shares of active, inactive and inconclusive entries below differ from those in the screen. No stated cut-off is given here; in the data, active means activity change below about -30%; inconclusive means mostly about -25% to -30%; inactive means weaker than that. Some compounds were tested as several samples or in several runs, with calls that do not always agree.

What follows are compounds tested against L-lactate dehydrogenase A chain (Homo sapiens) (UniProt P00338) (assay: qHTS assay for inhibitors of human lactate dehydrogenase). Conditions: purified LDHA, NADH/diaphorase-resazurin fluorescence; active compounds read low.
Outline: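 Human LDH5 (2 nM) was incubated with 0.06 mM NADH and 0.2 mM pyruvate for 5 min at room temperature in Tris pH 7.4. Remaining NADH was coupled through diaphorase/resazurin, and resorufin fluorescence was read at 0 and 20 min.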
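Further: values are at about 110 or 230 µM; plate controls were DMSO wells for no effect and wells without enzyme for full effect.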

Activity change, active:
CCn1c(CSc2nc3ccccc3[nH]2)nc2cc(C(=O)O)ccc21 -30%
CN1CCCN(Cc2ccccc2C(F)(F)F)CC1 -33.9%
CCN1CCN(C(C)C(=O)NC2CCCCC2)CC1 (centres undefined) -30.8%
O=C1c2cc(Br)ccc2N(Cc2ccc(Br)cc2)S(=O)(=O)C1c1cc(Cl)c(Cl)cc1[N+](=O)[O-] (centres undefined) -43.3%
O=C(CN1CCN(C(=O)c2ccco2)CC1)Nc1c2c(nc3c1CCC3)CCCC2 -34.6%
C[n+]1cnn2c1SCC1(COC1)C2 -57.6%
Cc1ccc(S(=O)(=O)N2CCN(C(=O)Cc3sc(C)nc3-c3ccc(F)cc3)CC2)c(C)c1 -33%
OC(CNCC(c1ccco1)N1CCCCC1)c1ccccc1 (centres undefined) -30.6%
COc1ccccc1NC(C)=[N+](C)CCNS(=O)(=O)c1ccc(Cl)cc1 -73.7%
COC(=O)C1=C(C)NC(=O)CC1C(=O)Nc1ccc(Cl)cc1 (centres undefined) -65%
Cc1ccc(-c2n[nH]c(=O)c3ccccc23)cc1S(N)(=O)=O -30.2%
Cc1[nH]c2ccccc2c1N=Nc1cc(C(=O)O)cc(C(=O)O)c1 -34.3%
CCCOC(=O)C1=C(C)Nc2nnnn2C1c1cc(Br)ccc1OCC (centres undefined) -31.6%
COC(=O)C(C)Oc1ccc2c(-c3ccccc3)cc(=O)oc2c1 (centres undefined) -31.8%
CSc1ccc(NC(=O)C(C)N2CCN(C)CC2)cc1 (centres undefined) -35.1%
O=C(Oc1ccccc1)c1cc(O)c(O)c(O)c1 -35.4%
COC(=O)c1ccc(C2CC(=O)Nc3c2cc(Br)c2ccccc32)cc1 (centres undefined) -35%
COc1ccc(CN2CCN(Cc3ccc4ccccc4c3)CC2)cc1OC -34.2%
COc1cc(C2CC(=O)Oc3c2c(=O)[nH]c2ccccc32)cc2c1OCO2 (centres undefined) -37.7%

Activity change, inactive:
CCOC(=O)C1CCN(C(=O)CN2C(=O)c3cccnc3Oc3ccccc32)CC1 -9.19%
COC(=O)c1c(C)oc(C)c1S(=O)(=O)N(C)C1CCCCC1 -1.53%
COc1ccc(N(CC(=O)Nc2ccc(Cl)cc2C)S(=O)(=O)c2ccccc2)c(OC)c1 2.8%
CC(C)CCn1c(SCc2cccc(F)c2)nc2ccsc2c1=O -1.43%
O=C(Nc1ccc(Br)cn1)c1cc(-c2ccccc2)on1 -14%
COc1cc(C)c(S(=O)(=O)Nc2ccc(Nc3cc(N4CCCC4)nc(C)n3)cc2)cc1C 3.13%
CCCCc1ccc(NC(=O)CSC2=C(C#N)C(c3ccco3)C3=C(CCCC3=O)N2)cc1 (centres undefined) 0.0708%
CC1(C(=O)NCc2ccco2)Cc2c(-c3ccccc3)ccnc2O1 (centres undefined) -3.37%
CC(C)C[C@H](NC(=O)c1[nH]cnc1C(=O)Nc1ccccc1)C(=O)OC(C)(C)C 6.64%
Cc1ccc(S(=O)(=O)NCN2C(=O)c3ccccc3C2=O)cc1 1.54%
CN(c1cccc(NC(=O)CN(c2ccc(C34CC5CC(CC(C5)C3)C4)cc2)S(C)(=O)=O)c1)S(C)(=O)=O -7.11%
Cc1ccccc1Cn1c(=O)n(CCCC(=O)NCc2ccco2)c(=O)c2ccccc21 -9.25%
COc1ccc(-c2coc3cc(OCC(=O)N4CCN(C(C)=O)CC4)ccc3c2=O)cc1 9.3%
COc1cc(C(=O)O)cc(OC)c1OCc1cc(C(=O)O)oc1C 3.7%
N#C/C(=C\c1c(N(Cc2ccccc2)Cc2ccccc2)nc2ccccn2c1=O)C(N)=O 0.137%
Cc1cccc(N2CCN(S(=O)(=O)c3ccc4c(c3)C(C(C)C)C(=O)N4)CC2)c1C (centres undefined) 3.53%
O=C(COCc1cc(-c2cccs2)on1)NC1CCCCC1 -0.193%

Activity change, inconclusive:
Cc1ccc(S(=O)(=O)N(CCc2ccccc2)c2ccc3c(c2)C2CC3CCN2C(=O)OCc2ccccc2)cc1 (centres undefined) -26.4%
O=C(c1cccs1)N1CCN(Cc2cccnc2)CC1 -27.6%
CN(C(=S)NCCN1CCOCC1)C(c1ccccc1)c1ccccc1 -27.6%
O=C(/C=C/c1cccnc1)Nc1ccc(SC2CCCC2)cc1 -25.1%
COC(=O)CCOc1ccc(S(=O)(=O)Nc2ccc(F)cc2F)cc1 -25.9%
COc1ccc(NC(=O)CC2Oc3ccc(C)cc3NC2=O)cc1Cl (centres undefined) -26.1%
CC(C)OCCCNc1ncnc2c1[nH]c1ccc(F)cc12 -28.4%
c1cc2c(cc1CN1CCN(C3CCCCCC3)CC1)OCO2 -25.2%
Cc1cc2oc(C(=O)NCC(c3cccs3)N3CCCC3)cc(=O)c2cc1Cl (centres undefined) -26.8%
CCN(CC)S(=O)(=O)c1cc(C)c(C)c(N)c1 -25.7%
CC(=O)N(C(C)=O)N1C(=O)/C(=C/c2ccc(Cl)cc2)SC1=S -25.1%
COc1ccc(CCNCCN2CCOCC2)cc1 -25.2%
O=C(NCCNc1ccc(Cl)cc1[N+](=O)[O-])c1cccnc1 -29%
CCN1CCN(C(=S)NCCc2ccccc2)CC1 -28%
COc1ccc(Nc2oc(COc3ccccc3C)nc2C#N)cc1 -29.8%
COc1cc(/C=C(/C#N)c2nc3ccccc3[nH]2)ccc1SC -29.4%
Cc1cc2n(CC(O)COc3ccc(C(C)(C)C)cc3)c(=O)c3ccccc3n2n1 (centres undefined) -29.7%
COc1ccc(CN2CCN(Cc3cccc(F)c3)CC2)cc1OC -27.5%
CCOCCOC(=O)c1nc2ccccc2nc1Nc1cccc(C)c1C -28.5%
CC1CCCN(CCSc2ccc(Cl)cc2)C1 (centres undefined) -25.4%
CCOC(=O)C(C(=O)OCC)C(Nc1cccc(C)c1)c1ccccc1 (centres undefined) -26.4%
Cc1ccc(C)c(NC(=O)c2cc[n+](C)cc2)c1 -26.1%
Cc1ccc(OCC(COCc2ccccc2)NC(C)C)cc1 (centres undefined) -26.9%
